Source: paper PMC7933324
Results are given in words; binding and its absence hold for the method and conditions named. In cells and extracts the contact can be indirect. Some entries that bind do so weakly or less than the wild type.

Chains of the proteins cited; added tags and fusions are not shown. Lines headed by an entry give the natural chain unless they say otherwise; changes in a name come on top. A line that says so, or that is headed by a name, gives the form on record, which may keep a tag or linker.
UniProt Q8NEB9: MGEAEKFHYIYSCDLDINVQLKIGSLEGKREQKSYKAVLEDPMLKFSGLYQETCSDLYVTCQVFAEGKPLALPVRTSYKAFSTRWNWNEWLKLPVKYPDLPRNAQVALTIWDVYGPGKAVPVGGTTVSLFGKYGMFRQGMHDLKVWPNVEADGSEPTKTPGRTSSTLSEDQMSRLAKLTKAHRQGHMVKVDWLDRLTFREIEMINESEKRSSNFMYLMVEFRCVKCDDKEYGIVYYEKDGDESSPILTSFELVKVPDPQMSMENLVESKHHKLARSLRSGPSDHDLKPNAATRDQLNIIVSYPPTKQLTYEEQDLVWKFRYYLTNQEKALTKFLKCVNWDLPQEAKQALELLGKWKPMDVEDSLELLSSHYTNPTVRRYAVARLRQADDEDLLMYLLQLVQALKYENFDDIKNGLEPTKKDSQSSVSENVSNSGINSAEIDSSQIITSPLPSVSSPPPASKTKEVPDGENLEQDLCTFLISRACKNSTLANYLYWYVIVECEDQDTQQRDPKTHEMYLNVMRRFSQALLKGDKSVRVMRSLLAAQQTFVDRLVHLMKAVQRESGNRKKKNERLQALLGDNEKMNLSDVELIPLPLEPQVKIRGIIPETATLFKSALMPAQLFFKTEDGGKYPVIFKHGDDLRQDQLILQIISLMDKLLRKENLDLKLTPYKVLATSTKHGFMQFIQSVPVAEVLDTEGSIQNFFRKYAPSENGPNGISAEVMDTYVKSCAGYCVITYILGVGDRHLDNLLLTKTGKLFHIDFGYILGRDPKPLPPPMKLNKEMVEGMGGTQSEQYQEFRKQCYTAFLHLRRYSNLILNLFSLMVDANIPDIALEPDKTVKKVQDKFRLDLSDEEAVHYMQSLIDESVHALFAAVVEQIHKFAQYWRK
UniProt Q9BWF3: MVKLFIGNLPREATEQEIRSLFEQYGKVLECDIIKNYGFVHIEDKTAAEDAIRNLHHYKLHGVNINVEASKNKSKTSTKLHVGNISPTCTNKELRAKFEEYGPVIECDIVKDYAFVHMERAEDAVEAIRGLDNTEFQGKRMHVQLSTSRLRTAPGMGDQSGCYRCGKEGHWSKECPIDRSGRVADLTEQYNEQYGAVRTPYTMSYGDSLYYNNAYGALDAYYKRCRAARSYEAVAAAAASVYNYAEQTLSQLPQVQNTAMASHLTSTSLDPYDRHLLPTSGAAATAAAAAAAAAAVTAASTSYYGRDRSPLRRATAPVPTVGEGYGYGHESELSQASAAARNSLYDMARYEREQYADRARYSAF
Flag-Bcl-xS (Q07817, form named): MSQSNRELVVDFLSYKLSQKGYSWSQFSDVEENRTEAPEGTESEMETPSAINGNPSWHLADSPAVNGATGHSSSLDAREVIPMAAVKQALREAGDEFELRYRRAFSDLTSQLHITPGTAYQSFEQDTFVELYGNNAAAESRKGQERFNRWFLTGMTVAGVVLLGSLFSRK
UniProt Q14457: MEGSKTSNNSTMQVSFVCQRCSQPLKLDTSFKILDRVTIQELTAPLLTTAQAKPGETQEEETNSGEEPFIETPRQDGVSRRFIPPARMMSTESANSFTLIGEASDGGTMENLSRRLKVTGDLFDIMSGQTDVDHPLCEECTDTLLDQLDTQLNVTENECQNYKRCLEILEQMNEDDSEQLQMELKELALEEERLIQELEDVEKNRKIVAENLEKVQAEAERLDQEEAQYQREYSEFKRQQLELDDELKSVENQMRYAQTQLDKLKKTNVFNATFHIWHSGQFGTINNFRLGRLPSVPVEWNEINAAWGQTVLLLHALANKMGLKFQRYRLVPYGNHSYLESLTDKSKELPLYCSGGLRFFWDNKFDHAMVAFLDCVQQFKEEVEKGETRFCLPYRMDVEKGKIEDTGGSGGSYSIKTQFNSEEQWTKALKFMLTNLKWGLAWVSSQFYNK
UniProt Q07955: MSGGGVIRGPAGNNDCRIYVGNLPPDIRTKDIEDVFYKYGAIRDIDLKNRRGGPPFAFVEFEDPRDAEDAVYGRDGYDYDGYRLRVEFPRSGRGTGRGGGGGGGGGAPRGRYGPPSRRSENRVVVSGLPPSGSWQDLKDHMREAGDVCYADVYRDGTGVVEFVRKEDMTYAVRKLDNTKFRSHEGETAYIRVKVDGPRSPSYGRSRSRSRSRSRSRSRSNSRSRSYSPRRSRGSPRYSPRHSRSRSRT

Tests used:
[1] = biological target: endogenous PIK3C3 (human (endogenous in H1299 and A549)) (UniProt Q8NEB9); assay: proximity ligation; endogenous proteins in fixed, permeabilised A549 cells; Duolink kit (DUO92101); for SRSF1 and LC3 in the absence or presence of HBSS and CQ for 4 h
[2] = biological target: endogenous RBM4 (human (endogenous in A549)) (UniProt Q9BWF3); assay: as above
Flag-Bcl-xS = Flag-Bcl-xS (UniProt Q07817); assay: co-IP; 293 T cells (also H1299 cells) co-transfected; lysis buffer 50 mM Tris/HCl pH 7.5, 150 mM NaCl, 1 mM EDTA, 1% Triton X-100; Anti-FLAG M2 beads at 4 °C overnight; five washes with TBS, 0.1% Triton X-100; western blot
Flag-Beclin1 = Flag-Beclin1 (UniProt Q14457); assay: as above
Flag-PIK3C3 = Flag-PIK3C3 (UniProt Q8NEB9); assay: as above

## endogenous SRSF1 (from UniProt Q07955 1-248)
[1]
  binding: binds
[2]
  binding: binds

## pEGFP-C1-Beclin1 (from UniProt Q14457 1-450)
Flag-Bcl-xS
  binding: no binding

## pEGFP-C1-SRSF1 (from UniProt Q07955 1-248)
Flag-Beclin1
  binding: no binding
Flag-PIK3C3
  binding: binds
